# The list shows a part of the results.
# What was measured:
# Test in all cases: glycan array binding signal (z-score within array); higher = stronger binding
# Conditions in all cases: glycan notation: IUPAC condensed, linker removed
# Fuc(a1-2)Gal = biological target: Fuc(a1-2)Gal
# Outline: (§1)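 Columns mapping to the same glycan were averaged after glycan names were converted to IUPAC-condensed notation. The data come from 3228 arrays in the Consortium for Functional Glycomics database, limited to those with an available protein sequence. Binding is reported as a within-array Z-score averaged across arrays of one protein sequence and across linkers.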
# Fuc(a1-2)Gal(b1-3)GalNAc = biological target: Fuc(a1-2)Gal(b1-3)GalNAc
# Outline: as §1
# [1] = biological target: Fuc(a1-2)Gal(b1-3)GalNAc(a1-3)[Fuc(a1-2)]Gal(b1-4)Glc
# Outline: as §1
# [2] = biological target: Fuc(a1-2)Gal(b1-3)GalNAc(a1-3)[Fuc(a1-2)]Gal(b1-4)GlcNAc
# Outline: as §1
# [3] = biological target: Fuc(a1-2)Gal(b1-3)GalNAc(b1-3)Gal
# Outline: as §1
# [4] = biological target: Fuc(a1-2)Gal(b1-3)GalNAc(b1-3)Gal(a1-4)Gal(b1-4)Glc
# Outline: as §1
# [5] = biological target: Fuc(a1-2)Gal(b1-3)GalNAc(b1-3)Gal(b1-4)Glc
# Outline: as §1
# [6] = biological target: Fuc(a1-2)Gal(b1-3)GalNAc(b1-4)[Neu5Ac(a2-3)]Gal(b1-4)Glc
# Outline: as §1
# Fuc(a1-2)Gal(b1-3)GlcNAc = biological target: Fuc(a1-2)Gal(b1-3)GlcNAc
# Outline: as §1
# [7] = biological target: Fuc(a1-2)Gal(b1-3)GlcNAc(b1-2)Man(a1-3)[Fuc(a1-2)Gal(b1-3)GlcNAc(b1-2)Man(a1-6)]Man(b1-4)GlcNAc(b1-4)GlcNAc
# Outline: as §1
# [8] = biological target: Fuc(a1-2)Gal(b1-3)GlcNAc(b1-2)Man(a1-3)[Fuc(a1-2)Gal(b1-3)GlcNAc(b1-2)Man(a1-6)]Man(b1-4)GlcNAc(b1-4)[Fuc(a1-6)]GlcNAc
# Outline: as §1
# [9] = biological target: Fuc(a1-2)Gal(b1-3)GlcNAc(b1-3)Gal(b1-4)Glc
# Outline: as §1
# [10] = biological target: Fuc(a1-2)Gal(b1-3)GlcNAc(b1-3)GalNAc
# Outline: as §1
# [11] = biological target: Fuc(a1-2)Gal(b1-3)GlcNAc(b1-3)[Fuc(a1-2)Gal(b1-3)GlcNAc(b1-6)]GalNAc
# Outline: as §1
# [12] = biological target: Fuc(a1-2)Gal(b1-3)GlcNAc(b1-3)[Gal(b1-4)GlcNAc(b1-6)]Gal(b1-4)Glc
# Outline: as §1
# [13] = biological target: Fuc(a1-2)Gal(b1-3)GlcNAc(b1-3)[Neu5Ac(a2-6)Gal(b1-4)GlcNAc(b1-6)]Gal(b1-4)Glc
# Outline: as §1
# [14] = biological target: Fuc(a1-2)Gal(b1-3)GlcNAc6S
# Outline: as §1
# [15] = biological target: Fuc(a1-2)Gal(b1-3)[Fuc(a1-4)]GlcNAc
# Outline: as §1
# [16] = biological target: Fuc(a1-2)Gal(b1-3)[Fuc(a1-4)]GlcNAc(b1-2)Man(a1-3)[Fuc(a1-2)Gal(b1-3)[Fuc(a1-4)]GlcNAc(b1-2)Man(a1-3)]Man(b1-4)GlcNAc(b1-4)GlcNAc
# Outline: as §1
# [17] = biological target: Fuc(a1-2)Gal(b1-3)[Fuc(a1-4)]GlcNAc(b1-2)Man(a1-3)[Fuc(a1-2)Gal(b1-3)[Fuc(a1-4)]GlcNAc(b1-2)Man(a1-6)]Man(b1-4)GlcNAc(b1-4)[Fuc(a1-6)]GlcNAc(b1-4)[Fuc(a1-6)]GlcNAc
# Outline: as §1
# [18] = biological target: Fuc(a1-2)Gal(b1-3)[Fuc(a1-4)]GlcNAc(b1-3)[Fuc(a1-3)[Gal(b1-4)]GlcNAc(b1-6)]Gal(b1-4)Glc
# Outline: as §1
# [19] = biological target: Fuc(a1-2)Gal(b1-3)[Fuc(a1-4)]GlcNAc(b1-3)[Gal(b1-4)GlcNAc(b1-6)]Gal(b1-4)Glc
# Outline: as §1
# [20] = biological target: Fuc(a1-2)Gal(b1-4)Fuc(a1-3)]GlcNAc(b1-2)Man(a1-3)[Fuc(a1-2)Gal(b1-4)[Fuc(a1-3)]GlcNAc(b1-2)Man(a1-6)]Man(b1-4)GlcNAc(b1-4)GlcNAc
# Outline: as §1
# Fuc(a1-2)Gal(b1-4)Glc = biological target: Fuc(a1-2)Gal(b1-4)Glc
# Outline: as §1
# Fuc(a1-2)Gal(b1-4)Glc6S = biological target: Fuc(a1-2)Gal(b1-4)Glc6S
# Outline: as §1
# Fuc(a1-2)Gal(b1-4)GlcNAc = biological target: Fuc(a1-2)Gal(b1-4)GlcNAc
# Outline: as §1
# [21] = biological target: Fuc(a1-2)Gal(b1-4)GlcNAc(b1-2)Man
# Outline: as §1
# [22] = biological target: Fuc(a1-2)Gal(b1-4)GlcNAc(b1-2)Man(a1-3)[Fuc(a1-2)Gal(b1-4)GlcNAc(b1-2)Man(a1-6)]Man(b1-4)GlcNAc(b1-4)GlcNAc
# Outline: as §1
# [23] = biological target: Fuc(a1-2)Gal(b1-4)GlcNAc(b1-2)Man(a1-3)[Fuc(a1-2)Gal(b1-4)GlcNAc(b1-2)Man(a1-6)]Man(b1-4)GlcNAc(b1-4)[Fuc(a1-6)]GlcNAc
# Outline: as §1
# [24] = biological target: Fuc(a1-2)Gal(b1-4)GlcNAc(b1-2)[Fuc(a1-2)Gal(b1-4)GlcNAc(b1-4)]Man(a1-3)[Fuc(a1-2)Gal(b1-4)GlcNAc(b1-2)Man(a1-6)]Man(b1-4)GlcNAc(b1-4)GlcNAc
# Outline: as §1
# [25] = biological target: Fuc(a1-2)Gal(b1-4)GlcNAc(b1-3)Gal(b1-4)GlcNAc
# Outline: as §1
# [26] = biological target: Fuc(a1-2)Gal(b1-4)GlcNAc(b1-3)Gal(b1-4)GlcNAc(b1-2)Man(a1-3)[Fuc(a1-2)Gal(b1-4)GlcNAc(b1-3)Gal(b1-4)GlcNAc(b1-2)Man(a1-6)]Man(b1-4)GlcNAc(b1-4)GlcNAc
# Outline: as §1
# [27] = biological target: Fuc(a1-2)Gal(b1-4)GlcNAc(b1-3)Gal(b1-4)GlcNAc(b1-3)Gal(b1-4)GlcNAc
# Outline: as §1
# [28] = biological target: Fuc(a1-2)Gal(b1-4)GlcNAc(b1-3)GalNAc
# Outline: as §1
# [29] = biological target: Fuc(a1-2)Gal(b1-4)GlcNAc(b1-3)[Fuc(a1-2)Gal(b1-4)GlcNAc(b1-6)]GalNAc
# Outline: as §1
# [30] = biological target: Fuc(a1-2)Gal(b1-4)GlcNAc(b1-3)[Fuc(a1-3)[Gal(b1-4)]GlcNAc(b1-6)]Gal(b1-4)Glc
# Outline: as §1
# [31] = biological target: Fuc(a1-2)Gal(b1-4)GlcNAc(b1-6)GalNAc
# Outline: as §1
binder,measurement,setting,value
EEA (Euonymus europaeus) (protein) MASTIIATGPTYRVYCRAAPNYNMIVGKGVAFLAPIDETNELQYWYKDDTYSYIKDEAGLPAFSLVNKATGLTLKHSNHHPVPVKLVTYNPNVVDESVLWSQADDRGDGYSAIRSLTNPASHLEAAPLNDWSYNGAIIMGGVWIDAYNQQWKIEPHTG,glycan array binding signal (z-score),Fuc(a1-2)Gal,-0.14
same,glycan array binding signal (z-score),Fuc(a1-2)Gal(b1-3)GalNAc,0.657
same,glycan array binding signal (z-score),[1],-0.22
same,glycan array binding signal (z-score),[2],-0.193
same,glycan array binding signal (z-score),[3],-0.272
same,glycan array binding signal (z-score),[4],-0.238
same,glycan array binding signal (z-score),[5],1.55
same,glycan array binding signal (z-score),[6],-0.255
same,glycan array binding signal (z-score),Fuc(a1-2)Gal(b1-3)GlcNAc,0.913
same,glycan array binding signal (z-score),[7],0.509
same,glycan array binding signal (z-score),[8],-0.219
same,glycan array binding signal (z-score),[9],1.08
same,glycan array binding signal (z-score),[10],-0.234
same,glycan array binding signal (z-score),[11],-0.124
same,glycan array binding signal (z-score),[12],-0.054
same,glycan array binding signal (z-score),[13],0.158
same,glycan array binding signal (z-score),[14],-0.217
same,glycan array binding signal (z-score),[15],-0.173
same,glycan array binding signal (z-score),[16],-0.1
same,glycan array binding signal (z-score),[17],-0.18
same,glycan array binding signal (z-score),[18],-0.242
same,glycan array binding signal (z-score),[19],-0.191
same,glycan array binding signal (z-score),[20],-0.109
same,glycan array binding signal (z-score),Fuc(a1-2)Gal(b1-4)Glc,-0.13
same,glycan array binding signal (z-score),Fuc(a1-2)Gal(b1-4)Glc6S,-0.08
same,glycan array binding signal (z-score),Fuc(a1-2)Gal(b1-4)GlcNAc,0.32
same,glycan array binding signal (z-score),[21],-0.244
same,glycan array binding signal (z-score),[22],0.161
same,glycan array binding signal (z-score),[23],0.07
same,glycan array binding signal (z-score),[24],0.14
same,glycan array binding signal (z-score),[25],1.3
same,glycan array binding signal (z-score),[26],0.832
same,glycan array binding signal (z-score),[27],1.22
same,glycan array binding signal (z-score),[28],-0.283
same,glycan array binding signal (z-score),[29],-0.158
same,glycan array binding signal (z-score),[30],0.102
same,glycan array binding signal (z-score),[31],-0.104
